Source: patent US20100075377A1 (published 2010)

Target: T1, PD-1 expressed on transfected BHK 570 cells (UniProt Q15116 25-288, limits assumed)
T1 construct: whole, on cells; also called cell surface PD-1
Experiment: competition of unlabelled protein with 250 pM 125I-B7H1VASP-His6 on BHK cells expressing PD-1

T1 sequence (Q15116 25-288 limits assumed): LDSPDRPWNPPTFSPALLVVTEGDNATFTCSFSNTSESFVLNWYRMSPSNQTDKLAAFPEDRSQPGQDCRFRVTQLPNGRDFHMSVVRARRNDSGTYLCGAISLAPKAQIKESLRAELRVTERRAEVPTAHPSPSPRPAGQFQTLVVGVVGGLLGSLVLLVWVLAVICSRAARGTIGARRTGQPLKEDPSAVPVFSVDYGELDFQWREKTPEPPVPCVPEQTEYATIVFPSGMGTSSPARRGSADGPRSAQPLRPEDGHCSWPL

B1: B7H1VASP-His6 (tetrameric fusion of the B7H1 extracellular domain, VASP tetramerization domain and His6 tag) (ligand)
chain: not shown
modifications: 125I-labelled in the tracer form (IODO-TUBES; sites not stated); the unlabelled form was used as competitor
notes: Made in BHK570 cells; SEC-MALS is consistent with a tetramer; also called B7H1-VASP fusion protein; zB7H1VASP
- fold greater affinity, as compared to B7H1IgG: 10 fold
